Data set [1] has as its target wild-type human C3 (expressed from the PC3 coding sequence).
The target in data set [2] is E1Q2 mutant C3 (Arg1303 changed to Glu, plus Arg1320 changed to Gln).
Data set [3] addresses RY-1 mutant C3 (R1427Q, K1431D, E1433Q).
Data set [4] has as its target mutant C3M-I23 (Arg1303->Gln).
For data set [5], the target named is mutant C3M-26 (Arg1303->Gln, Arg1320->Gln).
Sequence of mutant C3M-26 (Arg1303->Gln, Arg1320->Gln) (chain, as listed by the source, stated change not applied, chain 1 of 2): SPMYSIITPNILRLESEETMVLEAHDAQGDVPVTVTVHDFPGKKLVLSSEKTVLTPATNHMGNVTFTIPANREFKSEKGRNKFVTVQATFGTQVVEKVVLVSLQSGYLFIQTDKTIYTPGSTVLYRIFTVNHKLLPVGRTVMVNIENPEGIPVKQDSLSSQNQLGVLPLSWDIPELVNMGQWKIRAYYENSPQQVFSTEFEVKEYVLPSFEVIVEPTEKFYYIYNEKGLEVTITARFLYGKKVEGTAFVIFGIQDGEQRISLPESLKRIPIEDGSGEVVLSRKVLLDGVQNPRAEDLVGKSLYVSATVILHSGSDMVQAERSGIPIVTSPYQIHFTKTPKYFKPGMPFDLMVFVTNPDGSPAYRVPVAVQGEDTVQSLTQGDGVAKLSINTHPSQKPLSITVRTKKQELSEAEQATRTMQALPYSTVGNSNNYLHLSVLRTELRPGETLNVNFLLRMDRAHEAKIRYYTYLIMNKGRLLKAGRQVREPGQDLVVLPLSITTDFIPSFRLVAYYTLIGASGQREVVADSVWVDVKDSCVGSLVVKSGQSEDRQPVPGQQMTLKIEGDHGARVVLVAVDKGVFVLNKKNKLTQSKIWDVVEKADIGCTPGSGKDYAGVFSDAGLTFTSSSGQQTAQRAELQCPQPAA
Sequence of mutant C3M-26 (Arg1303->Gln, Arg1320->Gln) (chain, as listed by the source, stated change not applied, chain 2 of 2): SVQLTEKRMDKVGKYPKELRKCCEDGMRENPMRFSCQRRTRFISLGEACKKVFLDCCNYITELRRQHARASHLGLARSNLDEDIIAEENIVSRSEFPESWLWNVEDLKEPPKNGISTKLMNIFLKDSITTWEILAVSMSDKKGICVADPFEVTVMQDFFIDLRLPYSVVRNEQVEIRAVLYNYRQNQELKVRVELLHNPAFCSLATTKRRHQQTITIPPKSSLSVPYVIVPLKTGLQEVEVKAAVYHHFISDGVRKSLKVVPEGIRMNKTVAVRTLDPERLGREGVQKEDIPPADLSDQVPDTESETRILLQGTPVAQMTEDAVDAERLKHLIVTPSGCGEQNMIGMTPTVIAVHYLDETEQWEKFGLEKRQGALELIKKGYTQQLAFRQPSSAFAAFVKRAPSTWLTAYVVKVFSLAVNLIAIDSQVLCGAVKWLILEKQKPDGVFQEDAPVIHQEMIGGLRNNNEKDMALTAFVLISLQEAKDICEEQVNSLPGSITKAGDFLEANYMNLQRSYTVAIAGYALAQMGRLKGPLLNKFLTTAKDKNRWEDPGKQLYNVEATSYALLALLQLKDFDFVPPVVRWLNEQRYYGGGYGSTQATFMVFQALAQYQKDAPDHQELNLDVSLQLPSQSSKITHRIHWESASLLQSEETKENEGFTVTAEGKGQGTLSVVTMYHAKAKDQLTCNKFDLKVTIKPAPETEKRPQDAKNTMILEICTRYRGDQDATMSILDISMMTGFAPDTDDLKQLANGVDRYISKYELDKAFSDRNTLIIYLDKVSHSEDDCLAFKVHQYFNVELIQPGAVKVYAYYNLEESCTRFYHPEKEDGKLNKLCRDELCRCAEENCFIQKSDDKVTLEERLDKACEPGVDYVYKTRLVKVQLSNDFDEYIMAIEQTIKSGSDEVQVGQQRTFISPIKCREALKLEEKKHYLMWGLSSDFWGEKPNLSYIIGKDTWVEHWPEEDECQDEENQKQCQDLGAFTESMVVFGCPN

Sequence of wild-type human C3 (expressed from the PC3 coding sequence) (chain, as listed by the source, chain 1 of 2): as the sequence (chain, as listed by the source, stated change not applied, chain 1 of 2) above
Sequence of wild-type human C3 (expressed from the PC3 coding sequence) (chain, as listed by the source, chain 2 of 2): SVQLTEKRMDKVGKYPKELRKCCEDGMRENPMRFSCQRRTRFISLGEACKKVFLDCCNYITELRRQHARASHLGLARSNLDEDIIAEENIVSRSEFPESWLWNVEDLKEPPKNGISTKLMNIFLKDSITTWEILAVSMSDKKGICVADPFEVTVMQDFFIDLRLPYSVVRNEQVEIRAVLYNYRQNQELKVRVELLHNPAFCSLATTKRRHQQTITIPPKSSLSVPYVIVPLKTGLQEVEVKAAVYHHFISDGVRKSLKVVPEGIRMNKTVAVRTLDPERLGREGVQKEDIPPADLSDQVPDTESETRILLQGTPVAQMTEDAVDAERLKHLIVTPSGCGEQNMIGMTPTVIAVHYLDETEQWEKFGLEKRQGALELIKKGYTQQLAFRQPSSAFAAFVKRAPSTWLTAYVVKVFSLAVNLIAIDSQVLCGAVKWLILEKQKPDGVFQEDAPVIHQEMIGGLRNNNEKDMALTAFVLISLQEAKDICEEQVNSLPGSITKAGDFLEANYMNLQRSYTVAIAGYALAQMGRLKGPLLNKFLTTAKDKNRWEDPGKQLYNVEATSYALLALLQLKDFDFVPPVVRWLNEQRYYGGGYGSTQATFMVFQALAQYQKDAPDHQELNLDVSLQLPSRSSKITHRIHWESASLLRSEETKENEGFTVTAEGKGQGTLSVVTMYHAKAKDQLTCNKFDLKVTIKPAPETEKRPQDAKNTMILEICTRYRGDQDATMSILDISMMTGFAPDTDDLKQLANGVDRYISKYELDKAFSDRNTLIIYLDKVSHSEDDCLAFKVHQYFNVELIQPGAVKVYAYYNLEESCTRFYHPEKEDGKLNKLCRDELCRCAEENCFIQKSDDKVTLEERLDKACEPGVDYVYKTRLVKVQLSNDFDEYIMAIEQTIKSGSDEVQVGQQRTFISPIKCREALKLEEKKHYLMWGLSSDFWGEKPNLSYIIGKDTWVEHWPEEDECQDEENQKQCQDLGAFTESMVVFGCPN
Sequence of RY-1 mutant C3 (R1427Q, K1431D, E1433Q) (chain, as listed by the source R1427Q K1431D E1433Q, chain 1 of 2): as the sequence (chain, as listed by the source, stated change not applied, chain 1 of 2) above
Sequence of RY-1 mutant C3 (R1427Q, K1431D, E1433Q) (chain, as listed by the source R1427Q K1431D E1433Q, chain 2 of 2): as the sequence (chain, as listed by the source, chain 2 of 2) above, with R756Q, K760D, E762Q counted along it
Sequence of E1Q2 mutant C3 (Arg1303 changed to Glu, plus Arg1320 changed to Gln) (chain, as listed by the source mutant, chain 1 of 2): as the sequence (chain, as listed by the source, stated change not applied, chain 1 of 2) above
Sequence of E1Q2 mutant C3 (Arg1303 changed to Glu, plus Arg1320 changed to Gln) (chain, as listed by the source mutant, chain 2 of 2): as the sequence (chain, as listed by the source, chain 2 of 2) above, with R632E, R649Q counted along it
Sequence of mutant C3M-I23 (Arg1303->Gln) (chain, as listed by the source, stated change not applied, chain 1 of 2): as the sequence (chain, as listed by the source, stated change not applied, chain 1 of 2) above
Sequence of mutant C3M-I23 (Arg1303->Gln) (chain, as listed by the source, stated change not applied, chain 2 of 2): as the sequence (chain, as listed by the source, chain 2 of 2) above, with R632Q counted along it

B1: factor B (protein)
chain: TPWSLARPQGSCSLEGVEIKGGSFRLLQEGQALEYVCPSGFYPYPVQTRTCRSTGSWSTLKTQDQKTVRKAECRAIHCPRPHDFENGEYWPRSPYYNVSDEISFHCYDGYTLRGSANRTCQVNGRWSGQTAICDNGAGYCSNPGIPIGTRKVGSQYRLEDSVTYHCSRGLTLRGSQRRTCQEGGSWSGTEPSCQDSFMYDTPQEVAEAFLSSLTETIEGVDAEDGHGPGEQQKRKIVLDPSGSMNIYLVLDGSDSIGASNFTGAKKCLVNLIEKVASYGVKPRYGLVTYATYPKIWVKVSEADSSNADWVTKQLNEINYEDHKLKSGTNTKKALQAVYSMMSWPDDVPPEGWNRTRHVIILMTDGLHNMGGDPITVIDEIRDLLYIGKDRKNPREDYLDVYVFGVGPLVNQVNINALASKKDNEQHVFKVKDMENLEDVFYQMIDESQSLSLCGMVWEHRKGTDYHKQPWQAKISVIRPSKGHESCMGAVVSEYFVLTAAHCFTVDDKEHSIKVSVGGEKRDLEIEVVLFHPNYNINGKKEAGIPEFYDYDVALIKLKNKLKYGQTIRPICLPCTEGTTRALRLPPTTTCQQQKEELLPAQDIKALFVSEEEKKLTRKEVYIKNGDKKGSCERDAQYAPGYDKVKDISEVVTPRFLCTGGVSPYADPNTCRGDSGGPLIVHKRSRFIQVGVISWGVVDVCKNQKRQKQVPAHARDFHINLFQVLPWLKEKLQDEDLGFL
On to B1, for which the “cleavage of 125I-labelled factor B by factor D in the presence of C3i (SDS-PAGE, autoradiography)” value in data set [1] is given as “distinct cleavage of factor B occurs even at a 1/125 dilution of the wild-type C3 (C3i)”; in data set [3], “no significant cleavage was observed in the presence of the mutant C3, even undiluted”. The “degree of factor B cleavage (125I-factor B in normal human serum, 1 h 37° C., background subtracted); 1/5 Wild-type” value in data set [1] is recorded as 2.74%. Besides, the “degree of factor B cleavage (125I-factor B in normal human serum, 1 h 37° C., background subtracted); 1/25 Wild-type” value in data set [1] is reported as 1.49%. Also, the “degree of factor B cleavage (125I-factor B in normal human serum, 1 h 37° C., background subtracted)” value stood at 6.42% in data set [2], 6.19% in data set [4] and 7.41% in data set [5].

These data come from patent publication US7002001.
